From the supplement of paper PMC4604168 (melanoma cell lines)
Some of the results follow. Many values rest on one well or one pass, so single values are uncertain.
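Also: cells treated in 1,536-well plates, then fixed and DAPI-stained, with nuclei counted from automated high-throughput microscope images.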

Each compound was assayed on COLO829 (assay: cell count relative to DMSO control; melanoma cells; higher = more viable cells). Conditions: library dose: standard library concentration; 72 h.
With `COc1cc([C@@H]2c3cc4c(cc3[C@@H](O[C@@H]3O[C@@H]5CO[C@@H](C)O[C@H]5[C@H](O)[C@H]3O)[C@H]3COC(=O)[C@H]23)OCO4)cc(OC)c1O` [etoposide] + C=C(c1ccc(C(=O)O)cc1)c1cc2c(cc1C)C(C)(C)CCC2(C)C [Bexarotene] (first compound 0.1 µM, partner dose 10 µM) the cell count was 75.3%.
`C[C@]1(O)C[C@@H](c2nc(-c3ccc4ccc(-c5ccccc5)nc4c3)c3c(N)nccn32)C1` + C=C(c1ccc(C(=O)O)cc1)c1cc2c(cc1C)C(C)(C)CCC2(C)C [Bexarotene] (first compound 2 µM, partner dose 10 µM) gave a cell count of 63.4%.
`C[C@]1(O)C[C@@H](c2nc(-c3ccc4ccc(-c5ccccc5)nc4c3)c3c(N)nccn32)C1` + NC1(c2ccc(-c3nc4ccn5c(=O)[nH]nc5c4cc3-c3ccccc3)cc2)CCC1 [MK2206] (first compound 2 µM, partner dose 2 µM) gave a cell count of 73.2%.
`COc1cc([C@@H]2c3cc4c(cc3[C@@H](O[C@@H]3O[C@@H]5CO[C@@H](C)O[C@H]5[C@H](O)[C@H]3O)[C@H]3COC(=O)[C@H]23)OCO4)cc(OC)c1O` [etoposide] + Cn1c(Nc2ccc(C(F)(F)F)cc2)nc2cc(Oc3ccnc(-c4ncc(C(F)(F)F)[nH]4)c3)ccc21 [CHIR265] (first compound 0.1 µM, partner dose 0.4 µM) gave a cell count of 69.1%.
For `Cn1cnc2c(F)c(Nc3ccc(Br)cc3Cl)c(C(=O)NOCCO)cc21` [selumetinib] + O=c1cc(-c2cccc3c2Sc2ccccc2S3)oc(N2CCOCC2)c1 [KU55933] (first compound 0.075 µM, partner dose 5 µM), the cell count was 90.6%.
With `C[C@]1(O)C[C@@H](c2nc(-c3ccc4ccc(-c5ccccc5)nc4c3)c3c(N)nccn32)C1` + Nc1ncn([C@H]2C[C@H](O)[C@@H](CO)O2)c(=O)n1 [decitabine] (first compound 2 µM, partner dose 0.5 µM) the cell count was 82.1%.
`COc1cc([C@@H]2c3cc4c(cc3[C@@H](O[C@@H]3O[C@@H]5CO[C@@H](C)O[C@H]5[C@H](O)[C@H]3O)[C@H]3COC(=O)[C@H]23)OCO4)cc(OC)c1O` [etoposide] + O=C(Nc1ccccc1)c1cc([N+](=O)[O-])ccc1Cl [GW9662] (first compound 0.1 µM, partner dose 10 µM) gave a cell count of 55.5%.
`CCN(CC)CCNC(=O)c1c(C)[nH]c(/C=C2\C(=O)Nc3ccc(F)cc32)c1C` [sunitinib] + NC1(c2ccc(-c3nc4ccn5c(=O)[nH]nc5c4cc3-c3ccccc3)cc2)CCC1 [MK2206] (first compound 2 µM, partner dose 2 µM) gave a cell count of 88.5%.
With `Cn1cnc2c(F)c(Nc3ccc(Br)cc3Cl)c(C(=O)NOCCO)cc21` [selumetinib] + COCC[n+]1c2c(n(Cc3cnccn3)c1C)C(=O)c1ccccc1C2=O [YM155] (first compound 0.075 µM, partner dose 0.002 µM) the cell count was 88%.
Compound `Cn1cnc2c(F)c(Nc3ccc(Br)cc3Cl)c(C(=O)NOCCO)cc21` [selumetinib] + NC1(c2ccc(-c3nc4ccn5c(=O)[nH]nc5c4cc3-c3ccccc3)cc2)CCC1 [MK2206] (first compound 0.075 µM, partner dose 2 µM) has a cell count of 67.7%.
Compound `COc1cc([C@@H]2c3cc4c(cc3[C@@H](O[C@@H]3O[C@@H]5CO[C@@H](C)O[C@H]5[C@H](O)[C@H]3O)[C@H]3COC(=O)[C@H]23)OCO4)cc(OC)c1O` [etoposide] + COc1cc(Nc2ncc(F)c(Nc3ccc4c(n3)NC(=O)C(C)(C)O4)n2)cc(OC)c1OC [Tamatinib] (first compound 0.1 µM, partner dose 2 µM) has a cell count of 83.9%.
Compound `Cn1cnc2c(F)c(Nc3ccc(Br)cc3Cl)c(C(=O)NOCCO)cc21` [selumetinib] + CC(C)C[C@H](NC(=O)[C@H](Cc1ccccc1)NC(=O)c1cnccn1)B(O)O [Bortezomib] (first compound 0.075 µM, partner dose 0.005 µM) has a cell count of 14.2%.
`COc1cc([C@@H]2c3cc4c(cc3[C@@H](O[C@@H]3O[C@@H]5CO[C@@H](C)O[C@H]5[C@H](O)[C@H]3O)[C@H]3COC(=O)[C@H]23)OCO4)cc(OC)c1O` [etoposide] + Oc1nc(-c2ccc(C(F)(F)F)cc2)nc2c1CSCC2 [XAV939] (first compound 0.1 µM, partner dose 10 µM) was tested, and the cell count was 91.3%.
In the case of `COc1cc([C@@H]2c3cc4c(cc3[C@@H](O[C@@H]3O[C@@H]5CO[C@@H](C)O[C@H]5[C@H](O)[C@H]3O)[C@H]3COC(=O)[C@H]23)OCO4)cc(OC)c1O` [etoposide] + COc1ccc(C2=N[C@@H](c3ccc(Cl)cc3)[C@@H](c3ccc(Cl)cc3)N2C(=O)N2CCNC(=O)C2)c(OC(C)C)c1 [Nutlin-3] (first compound 0.1 µM, partner dose 0.5 µM), the cell count is reported as 66.7%.
`Cn1cnc2c(F)c(Nc3ccc(Br)cc3Cl)c(C(=O)NOCCO)cc21` [selumetinib] + COc1ccc(COc2ccc(Cc3cnc(N)nc3N)cc2OC)cc1 [GW2580] (first compound 0.075 µM, partner dose 5 µM) showed a cell count of 110%.
Work on `C[C@]1(O)C[C@@H](c2nc(-c3ccc4ccc(-c5ccccc5)nc4c3)c3c(N)nccn32)C1` + Cn1c(=O)n(-c2ccc(C(C)(C)C#N)cc2)c2c3cc(-c4cnc5ccccc5c4)ccc3ncc21 [NVP-BEZ235] (first compound 2 µM, partner dose 0.02 µM) yielded a cell count of 67.4%.
With `Cn1cnc2c(F)c(Nc3ccc(Br)cc3Cl)c(C(=O)NOCCO)cc21` [selumetinib] + O=C(O)c1ccc(-c2c[nH]c3ncc(-c4ccccc4)cc23)cc1C1CCCC1 [GSK650394] (first compound 0.075 µM, partner dose 0.8 µM) the cell count was 102%.
`COc1cc([C@@H]2c3cc4c(cc3[C@@H](O[C@@H]3O[C@@H]5CO[C@@H](C)O[C@H]5[C@H](O)[C@H]3O)[C@H]3COC(=O)[C@H]23)OCO4)cc(OC)c1O` [etoposide] + COc1ccc2c(c1)CCC1C2CCC2(C)C(NCCCCCCN3C(=O)C=CC3=O)CCC12 [U73122] (first compound 0.1 µM, partner dose 2 µM) was tested, and the cell count was 82.7%.
In the case of `COc1cc([C@@H]2c3cc4c(cc3[C@@H](O[C@@H]3O[C@@H]5CO[C@@H](C)O[C@H]5[C@H](O)[C@H]3O)[C@H]3COC(=O)[C@H]23)OCO4)cc(OC)c1O` [etoposide] + COc1ccc(-c2ccc3c(N4CCOCC4)nc(N4C[C@@H](C)O[C@@H](C)C4)nc3n2)cc1CO [KU0063794] (first compound 0.1 µM, partner dose 0.1 µM), the cell count is reported as 79.7%.
`COc1cc([C@@H]2c3cc4c(cc3[C@@H](O[C@@H]3O[C@@H]5CO[C@@H](C)O[C@H]5[C@H](O)[C@H]3O)[C@H]3COC(=O)[C@H]23)OCO4)cc(OC)c1O` [etoposide] + Cc1cc(N2CCOCC2)cc2[nH]c(-c3c(NC[C@@H](O)c4cccc(Cl)c4)cc[nH]c3=O)nc12 [BMS536924] (first compound 0.1 µM, partner dose 1 µM) was tested, and the cell count was 94.9%.
With `Cn1cnc2c(F)c(Nc3ccc(Br)cc3Cl)c(C(=O)NOCCO)cc21` [selumetinib] + CN1CCN(c2ccc3nc(-c4c(N)c5c(F)cccc5[nH]c4=O)[nH]c3c2)CC1 [Dovitinib] (first compound 0.075 µM, partner dose 0.5 µM) the cell count was 67.2%.
Work on `C[C@]1(O)C[C@@H](c2nc(-c3ccc4ccc(-c5ccccc5)nc4c3)c3c(N)nccn32)C1` + O=S(=O)(c1ccccc1)N(CC(F)(F)F)c1ccc(C(O)(C(F)(F)F)C(F)(F)F)cc1 [T0901317] (first compound 2 µM, partner dose 7 µM) yielded a cell count of 78.7%.
